#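 Assay format: 96-well plates, 48-hour exposure. GI50 = concentration required for 50% inhibition of growth.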 Active and inactive are the calls of the source. No stated cut-off is given here; in the data, active = GI50 up to about 1.1 µM and inactive = higher.
# Test system: NCI-H322M
# Experiment: DTP human tumour cell line panel, 48 h
row,SMILES,GI50
1,N#C/N=C1/c2ccccc2/C(=N/C#N)c2cc(CO)ccc21,inactive: 34.6 µM
2,O=[N+]([O-])c1cnccc1-n1nnc2ccccc21,inactive: 19.4 µM
3,COC(=O)c1nc(-c2ccc(Cl)c(Cl)c2)nc2ccccc12,inactive: > 100 µM
4,Cn1c(N=P(c2ccccc2)(c2ccccc2)c2ccccc2)c([N+](=O)[O-])c(=O)n(C)c1=O,inactive: > 100 µM
5,COc1cc(NP(=O)(Oc2ccccc2)Oc2ccccc2)ccc1Nc1c2ccccc2nc2c1[nH]c1ccccc12,inactive: 17 µM
6,COc1ccc(/N=N/C(C(=O)c2ccccc2)C(=O)c2ccccc2)cc1,inactive: 4.07 µM
7,CNC(=O)N(C)C(=O)c1ccccc1C(=O)N(C)C(=O)NC,inactive: > 10 µM
8,O=C1OCC2C1C1c3ccccc3C(O)c3ccccc3C21 (centres undefined),inactive: > 100 µM
9,COc1ccc(S(=O)(=O)N/N=C/c2cc(I)cc([N+](=O)[O-])c2O)cc1OC,inactive: 52.1 µM
10,COc1ccc(N2CCOCC2)cc1,inactive: > 100 µM
11,O=C(NCc1cccnc1)NCc1cccnc1,inactive: > 100 µM
12,Cc1cc(-c2ccccc2)nc(Nc2cc3ccccc3[nH]2)n1,inactive: > 100 µM
13,Cc1ccc(-n2cc(/C(N)=N/O)c3ccccc3c2=O)cc1,inactive: > 100 µM
14,O=C1c2ccccc2C(=O)N1CC(O)COc1cccc2ccccc12 (centres undefined),inactive: > 100 µM
15,Cc1nc2ccccc2n1Cc1ccc(NC(=S)NC2CCCCC2)cc1,inactive: 25.5 µM
16,c1cc(CNCCN2CCNCC2)ccn1,inactive: > 100 µM
17,Cc1nc(C)c(N2CCN(S(=O)(=O)N(Cc3ccccc3)Cc3ccccc3)CC2)c(O)n1,inactive: > 89.1 µM
18,O=C1c2scnc2-c2nccc3c2c1nc1ccccc13 [KUANONIAMINE A],inactive: 1.41 µM
19,O=[N+]([O-])c1ccc(/C=C(/c2ccc([N+](=O)[O-])o2)S(=O)(=O)c2ccccc2)o1,inactive: 23.4 µM
20,O=C1NC(=O)[C@@]2(CC[C@@H](O)C2)c2ccncc21 [SESBANINE],inactive: > 100 µM

row,SMILES,GI50
1,CCc1ccccc1NC(=O)C(=O)CC(=O)c1sc(Nc2ccccc2)nc1C,inactive: > 100 µM
2,NC1CC(=O)c2cscc21 (centres undefined),inactive: > 100 µM
3,C=CCn1c2c(sc1=S)C(S)NC=N2 (centres undefined),inactive: 81.5 µM
4,CC(=O)O/N=C1\C=Cc2c(no[n+]2[O-])C1=O,inactive: 23.1 µM
5,COc1ccc(/N=N/C(=O)NC(CC(C)C)C(=O)NC(Cc2ccccc2)C(=O)O)cc1 (centres undefined),inactive: 94.4 µM
6,C1CN1c1nc(N2CC2)nc(N2CC2)n1,inactive: 18.9 µM
7,COc1c(O)c(O)c2c(c1O)C(=O)c1cc(C)cc(O)c1C2=O,inactive: 44.1 µM
8,CCOC(=O)C1=C(C)N(c2ccc(Cl)cc2)C2(O)C=CC(Nc3ccc(Cl)cc3)=C3C(=O)N(c4ccccc4)C(=O)C312 (centres undefined),inactive: 16.1 µM
9,O=[PH]1c2ccccc2Nc2ccccc21,inactive: > 100 µM
10,c1ccc(C2N3CCCCC3[C@@H]3c4[nH]c5ccccc5c4CCN23)cc1 (some centres undefined),inactive: > 100 µM
11,O=C1/C(=C/c2ccc(Cl)cc2)CCC1CCN1CCOCC1 (centres undefined),inactive: > 100 µM
12,O/N=C1\CC2(N3CCOCC3)CCC1(c1ccccc1)CC2,inactive: > 100 µM
13,COc1ccc(N2C(=O)C(C#N)=C(SC)C(C#N)C2=O)cc1 (centres undefined),inactive: > 100 µM
14,CCCCCCCCCCCCCCN [TETRADECYLAMINE],inactive: > 100 µM
15,COc1ccc(OC2OC(CO)C(OCc3ccccc3)C(OCc3ccccc3)C2OCc2ccccc2)cc1 (centres undefined),inactive: > 100 µM
16,CC(C)(C)N1C=[N+](C(C)(C)C)CC1,inactive: > 100 µM
17,CCOC(=O)[C@H]1Nc2ccc(Cl)cc2[C@H]2c3ccccc3O[C@H]21,inactive: 65.2 µM
18,O=S1(=O)OCCOS(=O)(=O)C1(F)Cc1ccccc1,inactive: > 100 µM
19,c1ccc2c(c1)[C@@H]1O[C@@H]1[C@@]13O[C@@]21[C@H]1O[C@H]1c1ccccc13,inactive: 18.5 µM

# Reference: ChEMBL document CHEMBL1201862, “PubChem BioAssay data set” (2004)
